# In all, about 300,000 compounds went through this assay and about 2,300 (0.77%) were called active. This list was built around the results that the source calls inconclusive (neither active nor inactive); the mix of calls is not that of the screen.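 Rule for the calls: active = mean activation of at least 80% with every replicate also reaching 80%; inconclusive = mean reaches 80% but some replicate falls short; inactive = the rest.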
# Assay: MITF-driven TRPM1 luciferase induction in melanoma cells – cell-based, SK-MEL-5, single point, primary screen (AID 588334);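 note: 0% = neutral control wells and 100% = parthenolide positive control wells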
# Details: SK-MEL-5 TRPM1-promoter luciferase, 24 h; at 12.5 µM; active compounds read high; % of positive control, neutral wells = 0
row,SMILES,activation
1,Cn1c(=O)c2[nH]c(COc3ccccc3)nc2n(C)c1=O,inactive: 18.5%
2,CCCc1cc(-c2ccc3c(c2)COc2c4ccccc4nn2-3)on1,inconclusive: 83.2%
3,Cc1cccnc1NC(=O)/C=C/c1ccc2c(c1)OCO2,inconclusive: 82.8%
4,COc1ccccc1CCCNC(=O)C1CCC(=O)N(Cc2ccccc2F)C1 (centres undefined),inconclusive: 87.3%
5,Cc1cccc(NC(=O)c2cnn3ccccc23)c1C,inconclusive: 85%
6,O=C(Nc1cccc(C(F)(F)F)c1)Nc1ccc(N2CCCC2)c(S(=O)(=O)Nc2ccccc2Cl)c1,inactive: -69.4%
7,CCN1C(=O)CCCc2ccccc21,inactive: -2.83%
8,CC(=O)N1CCN(S(=O)(=O)c2cccc(C(=O)NCc3ccc(F)cc3)c2)CC1,inactive: -3.57%
9,O=c1/c(=C/c2ccc(O)cc2)sc2n1CCCN=2,inconclusive: 84.1%
10,Cc1ccc(OCc2nc(-c3ccccc3)no2)cc1,inconclusive: 85.9%
11,CC(C)Sc1ccc(C(=O)Nc2ccc(F)cc2F)cn1,inconclusive: 82.5%
12,Cc1cccc(NC(=O)COc2ccc(Br)cc2C)n1,active: 198%
13,O=C(Nc1cccc([N+](=O)[O-])c1)c1[nH]ncc1Cl,inactive: 30.3%
14,O=C(/C=C/c1cc2ccccc2o1)c1ccccc1O,inconclusive: 81.6%
15,CCOC(=O)c1sc(N(Cc2ccccc2)C(=O)CCl)nc1C,inactive: -9.69%
16,Cc1ccc(C(=O)OCC(=O)N2CCc3ccccc32)cc1,active: 108%
17,CCOc1ccc(NC(=O)CN(C)CC(=O)Nc2ccc(Br)cc2F)cc1OCC,inactive: -6.02%
18,COc1ccc(COc2ccc3c(C)cc(=O)oc3c2)cc1,inconclusive: 81.2%
19,COCn1c(COc2ccc3ccccc3c2)nc2ccccc21,inconclusive: 85.1%
20,COc1ccc(CNc2nc3ccccc3n2C)c(O)c1,active: 93.3%
21,COc1ccc(-c2noc(-c3ccco3)n2)cc1OC,inconclusive: 81.5%
22,Cc1ccnc(NC(=O)COc2ccc(Cl)cc2)n1,inconclusive: 85.8%
23,CC(C)CN1C(=O)c2ccc(NC(=O)c3cccs3)cc2C1=O,inconclusive: 93.6%
24,O=C(NC1=NCCS1)c1ccc(C(F)(F)F)cc1,active: 87.2%
25,Cc1cc(/C=C2\NC(=S)N(C)C2=O)ccc1N1CCCC1,inactive: 50.3%

row,SMILES,activation
1,COc1ccc2oc(C(=O)NCCC(C)C)c(C)c2c1,inconclusive: 94.6%
2,O=C(NCCc1ccc(Cl)cc1)c1ccc(Br)s1,inconclusive: 91.6%
3,C#CCSc1nnc(-c2ccc(O)cc2)o1,inconclusive: 80.3%
4,COc1ccc(N2CCN(C(=O)c3ccc(-c4nc5ccccc5s4)o3)CC2)cc1,inactive: 19.9%
5,COC(=O)N1[C@H](C)C=C[C@]1(Cc1ccccc1)C(=O)NCCCNc1ncc(C(F)(F)F)cc1Cl,inactive: -2.17%
6,COc1cc(/C=N/NS(=O)(=O)c2ccc(C)cc2)ccc1OCc1ccc(C(=O)O)cc1,inactive: -70.3%
7,c1ccc(OCCOc2ncnc3ccccc23)cc1,inconclusive: 85%
8,O=C1c2ccccc2NC(c2ccc(-c3ccc(C(F)(F)F)cc3)o2)N1O (centres undefined),inactive: -25.6%
9,O=C1c2ccccc2NC(c2ccc(-c3ccccc3F)o2)N1O (centres undefined),inconclusive: 83.4%
10,Cc1nc(NC(=O)c2ccccc2O)sc1C,inconclusive: 81.7%
11,COc1ccccc1-c1sc2ccccc2c1C#Cc1ccc(N(C)C)cc1,inactive: -12.1%
12,COc1ccc(C(CC(=O)Nc2ncccc2C)N2Cc3ccccc3C2=O)cc1 (centres undefined),inactive: -5.67%
13,COc1cccc(Nc2c([N+](=O)[O-])cncc2[N+](=O)[O-])c1,inactive: -15.6%
14,CCCOC(=O)c1sc2nc3c(cc2c1N)C(=O)CCC3,inconclusive: 80.6%
15,Cc1csc(N/N=C\c2cccnc2)n1,inconclusive: 81.2%
16,COc1cc(NC(C)CCCNC(C)C)c2ncccc2c1OC (centres undefined),inactive: -32.3%
17,Cc1ccc(OCC(=O)Nc2ccon2)c([N+](=O)[O-])c1,inconclusive: 91.4%
18,C=CCn1c(CCNC(=O)c2ccc(Cl)c(Cl)c2)nnc1SCCOc1ccc(OC)cc1,inactive: 4.42%
19,Cc1ccc(-c2cc(C(=O)N3CCCc4ccccc43)no2)cc1,inconclusive: 97.8%
20,O=C(Oc1ccc(-c2nccc(-c3ccccn3)n2)cc1)c1cccc(C(F)(F)F)c1,inconclusive: 84%
21,Cc1cc(=O)oc2cc(NC(=O)c3ccnn3C)ccc12,inconclusive: 83.3%
22,COc1cc(/C=C/c2noc(-c3ccccc3O)n2)ccc1OC(C)=O,inconclusive: 93.8%
23,COc1ccc(S(=O)(=O)N(C)CC(=O)Nc2ccc3c(c2)OCO3)cc1,inactive: 6.74%
24,Cc1cc(C(=O)COC(=O)c2ccc(O)cc2)c(C)n1Cc1ccco1,inconclusive: 80.7%

# From PubChem BioAssay AID588334 (Broad Institute, 2011)
